Assay results: PubChem BioAssay AID624417 (National Center for Advancing Translational Sciences (NCATS), 2012)
Values joined by “and” are separate entries in the source; they are usually repeats but may differ in a detail not shown here. Identical values can stand only once. Among all 410,000 compounds or so, about 6,400 (1.6%) were called active. The shares of active, inactive and inconclusive entries below differ from those in the screen. Calls come from the whole dose curve; as a rule, active = well fitted inhibition curve with a large enough effect; inconclusive = small, poorly fitted or top-dose-only effect; inactive = no such curve, though single readings can be large or run the other way. Where the call is inconclusive, the potency comes from a doubtful curve fit.

What follows are compounds tested against Glucagon-like peptide 1 receptor (Homo sapiens) (UniProt P43220) (assay: qHTS of GLP-1 Receptor Inverse Agonists (Inhibition Mode)). Settings: HEK293 GLP-1R CRE-luciferase, luminescence, 24 h, GLP-1R form is constitutively active; activity change, negative = inhibition: at 38.3 µM (top of the series) unless noted.
How it was run: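 Assay principle: reduced luminescence from a cAMP-responsive reporter in HEK293 cells co-expressing a constitutively active GLP-1R. Conditions: 24 hr compound incubation, 37 deg C, 5% CO2.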
% is set by controls: 0 for no effect and ±100 for the full control effect; potency is the fitted concentration of half-maximal effect; tags give direction and shape of the fitted curve.
Note: nearly all actives have a fitted effect of over 55% in size.

Chain of UniProt P43220 (P43220 whole entry, looked up): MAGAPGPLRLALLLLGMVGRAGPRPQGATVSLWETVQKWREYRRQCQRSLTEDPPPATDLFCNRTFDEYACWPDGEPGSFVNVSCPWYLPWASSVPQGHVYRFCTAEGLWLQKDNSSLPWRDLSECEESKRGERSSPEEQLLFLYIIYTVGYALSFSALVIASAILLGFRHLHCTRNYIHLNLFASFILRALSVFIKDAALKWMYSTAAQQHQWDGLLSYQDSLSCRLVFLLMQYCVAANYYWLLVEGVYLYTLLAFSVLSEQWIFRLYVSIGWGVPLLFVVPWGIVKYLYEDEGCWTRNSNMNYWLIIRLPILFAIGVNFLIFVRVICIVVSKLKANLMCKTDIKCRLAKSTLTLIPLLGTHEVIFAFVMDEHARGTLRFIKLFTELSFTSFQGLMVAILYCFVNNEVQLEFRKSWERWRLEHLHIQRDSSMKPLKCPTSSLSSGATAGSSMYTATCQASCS

SMILES	Potency	activity change, negative = inhibition
CC(=O)N1c2ccc(S(=O)(=O)NCCc3ccccc3)cc2CC1C (centres undefined)	inconclusive: 5.01 µM [inhibitor, full curve, poor fit]	–
CCc1nn(C(C)C(=O)NCCN2CCN(c3cccc(C)c3C)CC2)c(=O)c2cc3occc3n12 (centres undefined)	inconclusive: 8.91 µM [inhibitor, partial curve, poor fit]	–
O=C(COc1ccc(F)cc1)Nc1nc2c(s1)CCCC2	inconclusive: 12.6 µM [inhibitor, single point]	–
CSc1ncccc1C(=O)OCC(=O)c1cc(C)n(CC2CCCO2)c1C (centres undefined)	inconclusive: 28.2 µM [inhibitor, single point]	–
CSc1ccccc1OCc1cc(C(=O)NCc2csc(C(C)C)n2)no1	inconclusive: 11.2 µM [inhibitor, partial curve, poor fit]	–
COc1ccc(CCC2CCNCC2)cc1	inconclusive: 10 µM [inhibitor, partial curve, poor fit]	–
COc1ccc(-c2ccc(CN3C(CC(C)C)C(=O)N(Cc4cn(CC5CCCCC5)nn4)CCS3(=O)=O)cc2)cc1OC (centres undefined)	inconclusive: 28.2 µM [inhibitor, single point]	–
CCCCCCCCCC(=O)N/N=C(\C)c1cccnc1	inconclusive: 22.4 µM [inhibitor, single point]	–
Fc1ccc(Nc2ccnc(Nc3ccc(F)cc3)n2)cc1	inconclusive: 11.2 µM [inhibitor, partial curve, poor fit]	–
CCCCCCn1c(COc2ccccc2F)nnc1SCC(=O)N1c2ccccc2NC(=O)C1(C)C	inconclusive: 25.1 µM [inhibitor, single point]	–
CC1CCN(CCCNC(=O)c2nn(C)c3c2CS(=O)(=O)c2ccccc2-3)CC1	–	inactive: -3.62%
Cc1csc(NC(=O)CSc2nnc3c4ccccc4nc(C(C)(C)C)n23)n1	inconclusive: 5.62 µM [inhibitor, full curve, poor fit]	–
Cc1ccc(CSCc2nc3ccccc3[nH]2)cc1	inconclusive: 28.2 µM [inhibitor, partial curve, poor fit]	–
COc1ccc(NC(=O)C(c2ccc(C#N)cc2)n2c(=O)c(-c3cc4ccccc4[nH]3)nc3ccccc32)cc1 (centres undefined)	inconclusive: 6.31 µM [inhibitor, partial curve]	–
C=C(C)C1CC=C(CN2CCC(O)CC2)CC1 (centres undefined)	–	inactive: -14.6%
c1ccc(-c2ccc(-c3cnc4n3CCCCC4)cc2)cc1	active: 5.01 µM	–
C=Cc1ccc(Cn2c(C)c(C(=O)NCc3ccc4c(c3)OCO4)sc2=O)cc1	inconclusive: 28.2 µM [inhibitor, single point]	–
COc1ccc(-n2ncc3c2CC(C)(C)CC3NC(=O)c2ccc(OC)o2)cc1 (centres undefined)	inconclusive: 11.2 µM [inhibitor, single point]	–
CN1CCN(c2ccc(CNS(=O)(=O)c3ccsc3)cc2)CC1	inconclusive: 2.82 µM [inhibitor, full curve, poor fit]	–
Cn1nnnc1SCC(=O)c1cccs1	–	inactive: 1.13%

SMILES	Potency	activity change, negative = inhibition
Cc1ccc(Cl)cc1-c1cc(C(=O)N2CCN(c3ccncc3)CC2)[nH]n1	inconclusive: 14.1 µM [inhibitor, partial curve, poor fit]	–
COc1ccc(-n2c(C)cc(C(=O)CSc3ccc(NC(C)=O)cc3)c2C)cc1	inconclusive: 28.2 µM [inhibitor, single point]	–
COc1cc(OC)c(OC)cc1CNCCSc1nnnn1-c1ccccc1	–	inactive: -26.7%
c1ccc2c(C(c3nnnn3-c3ccc4c(c3)OCCO4)N3CCCCC3)ccnc2c1 (centres undefined)	inconclusive: 10 µM [inhibitor, partial curve, poor fit]	–
CCOC(=O)[C@]12CCCC=C1N(Cc1cccc3ccccc13)C(=O)[C@H](CC(=O)NCc1cccc(C(F)(F)F)c1)C2	inconclusive: 10 µM [inhibitor, partial curve, poor fit]	–
O=C(c1ccccc1)c1cccc(C(=O)c2ccccc2)c1	inconclusive: 11.2 µM [inhibitor, single point]	–
O=C(CN1C(=O)NC2(CCCC2)C1=O)Nc1ccc(F)c(Cl)c1	inconclusive: 28.2 µM [inhibitor, single point]	–
Cc1cccc(N(C)C(=O)CN2C(=O)COc3ccc(S(=O)(=O)N4CCCCCC4)cc32)c1	inconclusive: 22.4 µM [inhibitor, single point] and inconclusive: 12.6 µM [inhibitor, partial curve]	–
Cc1ccc(S(=O)(=O)Nc2cccc3c2O[C@H](CN(C)C(=O)Nc2cccc4ccccc24)[C@H](C)CN([C@H](C)CO)C3=O)cc1	inconclusive: 11.2 µM [inhibitor, partial curve, poor fit]	–
O=[N+]([O-])c1ccc(COc2ccc(CN3CCCCC3)cc2)cc1	inconclusive: 8.91 µM [inhibitor, partial curve, poor fit]	–
CC(NC(=O)Cc1ccc(Br)cc1)c1ccccc1 (centres undefined)	inconclusive: 11.2 µM [inhibitor, partial curve, poor fit]	–
CCN(Cc1ccccc1)C(=O)C1CCN(c2ncnc3c2nc2n3CCCCC2)CC1	–	inactive: -10.8%
CC(C)Cn1nc(C(=O)NCc2ccccc2CN2CCCC2)c2ccccc2c1=O	inconclusive: 11.2 µM [inhibitor, partial curve]	–
CCC(C)(CCNC(=O)Cc1ccccc1)c1ccccc1OC (centres undefined)	inconclusive: 10 µM [inhibitor, partial curve, poor fit]	–
CCOc1ccc2nc(N(CCCN(C)C)C(=O)c3ccc(C(=O)c4ccccc4)cc3)sc2c1	inconclusive: 8.91 µM [inhibitor, partial curve, poor fit]	–
CC(C)(C)n1cnc2cc(NC(=O)c3ccc(Cl)cc3)ccc21	inconclusive: 14.1 µM [inhibitor, partial curve, poor fit]	–
Cc1cccc(OCCSCc2nc3ccccc3[nH]2)c1	inconclusive: 6.31 µM [inhibitor, partial curve]	–
CC(C)(C)n1nnnc1C(c1ccccc1)N1CCN(C(=O)c2ccco2)CC1 (centres undefined)	–	inactive: 11.1%
Cc1ccc(S(=O)(=O)N(CCc2ccccc2)c2ccc3c(c2)C2CC3CCN2C(=O)OCc2ccccc2)cc1 (centres undefined)	–	inactive: 18.9%
CCc1noc(C)c1C(=O)N1CCCSC1=Nc1ccccc1Cl	inconclusive: 20 µM [inhibitor, single point]	–

SMILES	Potency	activity change, negative = inhibition
O=C(c1cn(Cc2ccccc2)nc1-c1ccccc1)N1CCN(c2ccccn2)CC1	inconclusive: 28.2 µM [inhibitor, single point]	–
COc1cccc(CNC(=O)c2cc3cccc4c3n2CC(C)S4)c1OC (centres undefined)	inconclusive: 28.2 µM [inhibitor, single point]	–
CCc1ccccc1NC(=O)/C(C#N)=C/c1ccc(Sc2ccccc2)o1	inconclusive: 11.2 µM [inhibitor, partial curve, poor fit]	–
CCOC(=O)N1CCN(C(=O)C2CCN(C(=O)c3ccccc3C)CC2)CC1	inconclusive: 28.2 µM [inhibitor, single point]	–
Cn1cc(CC(=O)N2CCN(c3ccc(Cl)cc3)CC2)c2ccccc21	inconclusive: 10 µM [inhibitor, partial curve, poor fit]	–
Cc1ccc(S(=O)(=O)N(C)c2ccc(OC(=O)c3cccs3)cc2)cc1C	inconclusive: 12.6 µM [inhibitor, single point]	–
Cc1cc(Br)ccc1NC(=O)C(Cc1ccccc1)NS(=O)(=O)c1ccc(Br)s1 (centres undefined)	inconclusive: 10 µM [inhibitor, partial curve, poor fit]	–
CCc1nc2c(OCCOc3ccccc3)cccn2c1N(C=O)Cc1ccc(OC)cc1	inconclusive: 22.4 µM [inhibitor, partial curve, poor fit]	–
COc1ccc(NS(=O)(=O)c2cccc(C(=O)NCC(c3ccc(OC)cc3)N3CCCCC3)c2)cc1 (centres undefined)	inconclusive: 11.2 µM [inhibitor, partial curve, poor fit]	–
CC(C)(O)C(=O)NNC(=S)Nc1cccc(C(F)(F)F)c1	–	inactive: -2.09%
COc1ccc(CN2CCN(C(=O)c3cccc4ccccc34)CC2)c(OC)c1OC	–	inactive: 2.96%
CCC(C(=O)Nc1ccc(C(=O)OC)cc1)n1nc(-c2ccc(C)cc2)c2c(c1=O)CCCC2 (centres undefined)	active: 2.51 µM	–
CCOc1ccc(C(=O)N[C@H](C(=O)Nc2cccc(S(=O)(=O)N3CCCCC3)c2)C(C)C)cc1	inconclusive: 11.2 µM [inhibitor, single point]	–
COc1cccc(N2CCN(c3ccc(S(=O)(=O)N4CCN(C)CC4)cc3[N+](=O)[O-])CC2)c1	inconclusive: 10 µM [inhibitor, partial curve, poor fit]	–
CCC1CSC(=Nc2ccc(C)cc2)N1C(=O)CN1C(=O)NC2(CCCC2)C1=O (centres undefined)	inconclusive: 11.2 µM [inhibitor, partial curve, poor fit]	–
CCOC(=O)C1=C[C@@H](C(C)(C)C)N(S(=O)(=O)c2ccc(C)cc2)[C@H]1c1cccc(Cl)c1	inconclusive: 10 µM [inhibitor, partial curve, poor fit]	–
Cc1cc(C)c2c(CC(=O)Nc3ccc(S(=O)(=O)N4CCCC(C)C4)cc3)coc2c1 (centres undefined)	inconclusive: 14.1 µM [inhibitor, single point]	–
COC(=O)c1c(C)oc(C)c1S(=O)(=O)N(C)C1CCCCC1	inconclusive: 14.1 µM [inhibitor, partial curve, poor fit]	–
COCCNC(=O)CSc1cc(-c2ccccc2)c2ccc(OC)cc2n1	inconclusive: 31.6 µM [inhibitor, partial curve, poor fit]	–
